Source: PubChem BioAssay AID1458 (National Center for Advancing Translational Sciences (NCATS), 2008)
Out of some 210,000 compounds screened, about 5,900 (2.8%) were called active. The inconclusive results got no clear call from the source; some entries with a clear call stand among them for comparison. Calls come from the whole dose curve; as a rule, active = well fitted activation curve with a large enough effect; inconclusive = small, poorly fitted or top-dose-only effect; inactive = no such curve, though single readings can be large or run the other way. Potencies of inconclusive entries are doubtful fits and often do not repeat.
Potency is the fitted concentration of half-maximal effect; tags give direction and shape of the fitted curve.

Assay: qHTS Assay for Enhancers of SMN2 Splice Variant Expression; note: nearly all actives have a fitted effect of over 55% in size; for activity change, positive = activation: % of control where 0% means no effect
Settings: HEK293 SMN2-luciferase splicing reporter, luminescence, 30-36 h; activity change, positive = activation: at 46.1 µM (top of the series)
Outline: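 HEK293 cells carry an SMN2 […]–luciferase reporter in which exon 7 inclusion puts luciferase in frame. Cells were plated 10-12 h before compound addition, then incubated 30-36 h at 37C. ONE-Glo luminescence was read; sodium butyrate at 4.5 mM final served as control.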
For COc1ccc(C(=O)Nc2cc(Cl)ccc2OC(=O)c2ccc(OC)cc2)cc1, the “activity change, positive = activation” value was inactive: 23.5%.
In the case of CS(=O)(=O)c1sc2nc(-c3cccs3)cc(-c3ccccc3)c2c1N, the Potency was inconclusive: 12.6 µM [activator, partial curve, poor fit].
In the case of Brc1ccccc1-c1nc(-c2ccccc2)no1, the Potency was active: 3.98 µM.
With CC(C)=CC(=O)N1CCCc2ccccc21 the Potency was inconclusive: 0.0071 µM [activator, full curve, poor fit].
With COc1ccc2oc(=O)c(-c3nnc(-c4ccc(C)cc4)o3)cc2c1 the “activity change, positive = activation” value was inactive: -6.88%.
For COc1ccc(S(=O)(=O)Nc2cc(C)cc(C)n2)c2ccccc12, the Potency was inconclusive: 0.282 µM [activator, full curve].
In the case of COc1ccc(N/C=C\C(=O)c2ccc(Br)cc2)cc1OC, the Potency was inconclusive: 11.2 µM [activator, partial curve, poor fit].
In the case of Cc1[nH]c2ccccc2c1SCC(=O)O, the Potency was inconclusive: 17.8 µM [activator, single point].
With O=C(c1noc2c1CCc1ccccc1-2)N1CCOCC1 the Potency was inconclusive: 22.4 µM [activator, single point].
In the case of OCCCN1c2ccccc2Nc2nnc(-c3ccccc3)cc21, the Potency was inconclusive: 35.5 µM [activator, single point].
For Cc1ccc(-c2nc(C#N)c(N3CCCCC3)o2)cc1, the “activity change, positive = activation” value was inactive: -5.26%.
For CCN1C(=O)N(CC)C2C1N(CO)C(=O)N2CO (centres undefined), the “activity change, positive = activation” value was inactive: 0.954%.
With O=C(Oc1ccccc1/C=C\C(=O)c1cc2ccccc2o1)c1ccccc1 the activity change, positive = activation was inconclusive: 84.7% [activator].
For COc1cc(NC(C(=O)Nc2cccc(C(C)=O)c2)c2ccccc2)cc(OC)c1OC (centres undefined), the Potency was inconclusive: 15.8 µM [activator, partial curve, poor fit].
With CC(C)Cc1cc(C(=O)NCc2cccs2)no1 the Potency was active: 12.6 µM.
For Cc1ccoc1C(=O)Nc1cccc(Oc2ccccc2)c1, the Potency was inconclusive: 22.4 µM [activator, single point].
With Cc1ccccc1Cn1c(SCc2ccc(C(=O)NC3CCCCC3)cc2)nc2ccncc21 the “activity change, positive = activation” value was inactive: -15.1%.
For COc1ccc(C(=O)Cc2nnc(C)s2)c(OC)c1, the Potency was inconclusive: 8.91 µM [activator, partial curve, poor fit].
For Cc1ccc(NC(=O)N2CCC(O)(c3cccnc3)CC2)cc1, the Potency was inconclusive: 3.55 µM [activator, full curve].
With Cc1cc(C(=O)COC(=O)c2ccc[nH]c2=O)c(C)n1-c1ccc(Br)cc1 the Potency was inconclusive: 14.1 µM [activator, partial curve, poor fit].
With Cc1c(/C=C/C(=O)c2ccc(O)cc2)cnn1C the Potency was inconclusive: 35.5 µM [activator, single point].
In the case of CCn1c(SCc2nc3ccccc3s2)nnc1-c1cccs1, the Potency was inconclusive: 31.6 µM [activator, single point].
With OC[C@H]1O[C@@H](n2cnc3c(NC4CCCCC4)ncnc32)[C@H](O)[C@@H]1O the Potency was inconclusive: 3.55 µM [activator, single point].
With COC(=O)c1ccc(COC(=O)c2ccc(SC)cc2OC)cc1 the Potency was inconclusive: 35.5 µM [activator, single point].
With CSc1ccc(/C=N/N2CCN(c3ccccc3)CC2)cc1 the Potency was inconclusive: 3.55 µM [activator, full curve, poor fit].
In the case of CCN1C(=O)c2cccc3c(NC(=O)c4ccc(S(=O)(=O)N5CCOCC5)cc4)ccc1c23, the Potency was inconclusive: 17.8 µM [activator, partial curve, poor fit].
In the case of CCCCc1cc(=O)oc2cc(C)c3c(C)coc3c12, the Potency was inconclusive: 35.5 µM [activator, single point].
With Cc1ccc(Nc2nc(N)nc(CSc3ncccn3)n2)cc1 the Potency was active: 12.6 µM.
In the case of C[C@@]1(C(NS(=O)(=O)c2cccc3cccnc23)c2ccc(-c3ccccc3)cc2)C[C@H]1C1CCCCC1 (some centres undefined), the “activity change, positive = activation” value was inactive: -6.47%.
With Cc1ccc(NC(=O)CN2C(=O)N/C(=C/c3ccc(N4CCOCC4)cc3)C2=O)cc1 the Potency was inconclusive: 35.5 µM [activator, single point].
For O=C(COc1ccc(Cl)cc1)Nc1ncc([N+](=O)[O-])s1, the Potency was inconclusive: 3.55 µM [activator, partial curve].
With Cc1ccc(OCCn2cc(C(=O)C3CCCCC3)c3ccccc32)cc1 the Potency was inconclusive: 17.8 µM [activator, single point].
In the case of CCSc1nnc(NC(=O)c2ccccn2)s1, the Potency was active: 3.98 µM.
For Cc1ccccc1Nc1c(-c2cccnc2)nc2ccc(Br)cn12, the “activity change, positive = activation” value was inactive: -28.6%.
In the case of O=C(NC(=S)Nc1ccc(Cl)cn1)c1cccs1, the Potency was active: 12.6 µM.
For Oc1ccc(-c2csc(Nc3ncccn3)n2)cc1O, the Potency was inconclusive: 35.5 µM [activator, single point].
With CC(C)CCNC(=O)CCCC1=NS(=O)(=O)c2ccccc2N1 the “activity change, positive = activation” value was inactive: -5.1%.
With Cc1ccc(C(=O)c2cc3ccccc3o2)cc1 the Potency was inconclusive: 35.5 µM [activator, single point].
With COc1ccc(-c2ncc3ccccn23)cc1 the Potency was inconclusive: 15.8 µM [activator, single point].
With COc1cccc(OCCCn2cc(/C=C3/C(=N)N4C=C(C)SC4=NC3=O)c3ccccc32)c1 the Potency was inconclusive: 5.01 µM [activator, single point].
With Cc1nc(SCc2ccc(OCCC(C)C)cc2)n[nH]1 the Potency was inconclusive: 12.6 µM [activator, partial curve].
For O=C(Nc1nnc(-c2ccccc2)o1)c1cc(Cl)sc1Cl, the Potency was inconclusive: 5.62 µM [activator, single point].
In the case of COc1cc(N/C(=N/S(=O)(=O)c2ccccc2)c2ccccc2)ncn1, the Potency was inconclusive: 14.1 µM [activator, single point].
For COc1nc(-c2ccc(C)cc2)ccc1-c1noc(-c2ccccc2Br)n1, the “activity change, positive = activation” value was inactive: 1.09%.
For O=C(O)c1ccc(SCc2cnc(Cl)s2)cc1, the Potency was inconclusive: 3.55 µM [activator, single point].
For CCCCCC(=O)Nc1sc(C)c(C)c1C#N, the Potency was inconclusive: 22.4 µM [activator, partial curve, poor fit].
For O=C(c1c(F)cccc1F)N1CCN(c2ccccc2F)CC1, the “activity change, positive = activation” value was inactive: -13.8%.
In the case of O=C(O)c1nc(-c2ccccc2)n(-c2ccccc2)n1, the Potency was inconclusive: 3.16 µM [activator, single point].
With S=C(Nc1ccc(Cl)c(Cl)c1)NC1CCCCC1 the Potency was inconclusive: 0.178 µM [activator, partial curve, poor fit].
In the case of O=C(NCCCc1nc2ccccc2n1Cc1cccc(Cl)c1)c1ccco1, the “activity change, positive = activation” value was inactive: -8.36%.
In the case of C/C(=N\O)c1ccc(N2C(=O)C3CC=C(Cl)CC3C2=O)cc1 (centres undefined), the Potency was inconclusive: 22.4 µM [activator, single point].
For Cc1sc2nc(CC(=O)N3CCCC3)[nH]c(=O)c2c1C, the “activity change, positive = activation” value was inactive: 11.5%.
In the case of C/C(Cn1nnc([N+](=O)[O-])n1)=N\NC(=O)c1ccc(O)cc1O, the “activity change, positive = activation” value was inactive: -15.9%.
In the case of CCCOc1ccc2c(C)c(CC(=O)OC)c(=O)oc2c1, the Potency was inconclusive: 5.01 µM [activator, single point].
In the case of Cc1ccc(-n2ncc3c(SCc4ccccn4)ncnc32)c(C)c1, the Potency was active: 1.78 µM.
In the case of Cc1ccc(-n2ncc3c(NCc4ccco4)ncnc32)cc1C, the Potency was active: 15.8 µM.
In the case of Cn1ccc(-c2ccccc2)c(C#N)c1=O, the Potency was inconclusive: 14.1 µM [activator, single point].
For CCOC(=O)Cc1csc(/N=C/c2c(O)n(-c3ccc(C)cc3C)c(=O)c3ccccc23)n1, the “activity change, positive = activation” value was inactive: -21.8%.
For CCN1CCN(c2cc(C)c3cc(NC(=S)N4CCCC(C)C4)ccc3n2)CC1 (centres undefined), the Potency was inconclusive: 35.5 µM [activator, single point].
With COc1cccc(/C=N/n2c(=O)[nH]c3ccccc32)c1OC the Potency was inconclusive: 35.5 µM [activator, single point].
In the case of C=CCn1c(SCC(=O)O)nnc1-c1ccc(C(C)(C)C)cc1, the “activity change, positive = activation” value was inactive: -2.32%.
In the case of CCc1nnc(NC(=O)/C=C/c2cccs2)s1, the Potency was inconclusive: 12.6 µM [activator, single point].
For Cc1cc(NCCCN2CCOCC2)n2nc(C)c(-c3ccccc3)c2n1, the “activity change, positive = activation” value was inactive: -8.53%.
With O=C(CSc1ncn[nH]1)Nc1ccc(OCc2ccccc2)cc1 the Potency was inconclusive: 0.0316 µM [activator, full curve].
In the case of Cc1ccc(N(CC(=O)NCCc2ccccc2C)S(=O)(=O)N(C)C)cc1, the “activity change, positive = activation” value was inactive: 0.229%.
In the case of Cc1nc2cc(C(=O)O)ccc2s1, the Potency was active: 11.2 µM.
In the case of CCCn1c(=O)c2ccccc2n2c(SCCOc3ccc(OC)cc3)nnc12, the Potency was inconclusive: 5.01 µM [activator, single point].
With O=C(Nc1nnc(SCc2ccccn2)s1)C1CC(=O)N(c2ccccc2)C1 (centres undefined) the Potency was inconclusive: 0.794 µM [activator, full curve, poor fit].
For Cc1ccccc1NC(=S)NCc1ccccc1, the Potency was inconclusive: 5.01 µM [activator, full curve, poor fit].
For COc1ccc2c(c1)c(=O)c(C(=O)c1ccc(C)c(C)c1)cn2CC(=O)Nc1ccc2c(c1)OCCO2, the “activity change, positive = activation” value was inactive: -10.2%.
With COc1ccc(C(=O)c2ccc(CC(=O)O)s2)cc1 the “activity change, positive = activation” value was inactive: -7.07%.
In the case of Cc1nc(-c2nc(-c3c(C(=O)NN)noc3C)cs2)cs1, the Potency was inconclusive: 8.91 µM [activator, partial curve].
With Brc1ccc(Cn2c(-c3cncs3)nc3ccccc32)cc1 the activity change, positive = activation was inconclusive: 69.2% [activator].
In the case of CC(NC(=S)Nc1ccc(S(=O)(=O)N2CCOCC2)cc1)C1CC2CCC1C2 (centres undefined), the Potency was inconclusive: 1.26 µM [activator, partial curve].
